These results are taken from publication PMC11574294.

Amino acid sequences for entries named in this document (tags omitted). A change or cut given only in a name is not applied to a line headed by its entry. Residues count along the entry.
UniProt P29466: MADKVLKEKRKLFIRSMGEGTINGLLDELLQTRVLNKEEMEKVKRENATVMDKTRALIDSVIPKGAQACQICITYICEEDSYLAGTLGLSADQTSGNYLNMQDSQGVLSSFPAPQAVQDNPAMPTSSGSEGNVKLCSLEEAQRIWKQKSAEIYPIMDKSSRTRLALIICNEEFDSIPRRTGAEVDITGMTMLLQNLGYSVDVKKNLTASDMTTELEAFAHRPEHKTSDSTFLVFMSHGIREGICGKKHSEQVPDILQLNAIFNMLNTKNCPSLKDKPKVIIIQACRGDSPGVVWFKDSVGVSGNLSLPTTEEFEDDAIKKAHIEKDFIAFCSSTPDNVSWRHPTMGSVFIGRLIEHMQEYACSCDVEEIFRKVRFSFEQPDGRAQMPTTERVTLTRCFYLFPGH
UniProt Q9ULZ3: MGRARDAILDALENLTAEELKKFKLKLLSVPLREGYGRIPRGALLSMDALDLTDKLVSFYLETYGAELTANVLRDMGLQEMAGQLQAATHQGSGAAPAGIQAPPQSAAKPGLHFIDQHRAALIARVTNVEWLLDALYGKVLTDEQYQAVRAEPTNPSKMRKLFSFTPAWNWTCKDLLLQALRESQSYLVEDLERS
UniProt Q96P20: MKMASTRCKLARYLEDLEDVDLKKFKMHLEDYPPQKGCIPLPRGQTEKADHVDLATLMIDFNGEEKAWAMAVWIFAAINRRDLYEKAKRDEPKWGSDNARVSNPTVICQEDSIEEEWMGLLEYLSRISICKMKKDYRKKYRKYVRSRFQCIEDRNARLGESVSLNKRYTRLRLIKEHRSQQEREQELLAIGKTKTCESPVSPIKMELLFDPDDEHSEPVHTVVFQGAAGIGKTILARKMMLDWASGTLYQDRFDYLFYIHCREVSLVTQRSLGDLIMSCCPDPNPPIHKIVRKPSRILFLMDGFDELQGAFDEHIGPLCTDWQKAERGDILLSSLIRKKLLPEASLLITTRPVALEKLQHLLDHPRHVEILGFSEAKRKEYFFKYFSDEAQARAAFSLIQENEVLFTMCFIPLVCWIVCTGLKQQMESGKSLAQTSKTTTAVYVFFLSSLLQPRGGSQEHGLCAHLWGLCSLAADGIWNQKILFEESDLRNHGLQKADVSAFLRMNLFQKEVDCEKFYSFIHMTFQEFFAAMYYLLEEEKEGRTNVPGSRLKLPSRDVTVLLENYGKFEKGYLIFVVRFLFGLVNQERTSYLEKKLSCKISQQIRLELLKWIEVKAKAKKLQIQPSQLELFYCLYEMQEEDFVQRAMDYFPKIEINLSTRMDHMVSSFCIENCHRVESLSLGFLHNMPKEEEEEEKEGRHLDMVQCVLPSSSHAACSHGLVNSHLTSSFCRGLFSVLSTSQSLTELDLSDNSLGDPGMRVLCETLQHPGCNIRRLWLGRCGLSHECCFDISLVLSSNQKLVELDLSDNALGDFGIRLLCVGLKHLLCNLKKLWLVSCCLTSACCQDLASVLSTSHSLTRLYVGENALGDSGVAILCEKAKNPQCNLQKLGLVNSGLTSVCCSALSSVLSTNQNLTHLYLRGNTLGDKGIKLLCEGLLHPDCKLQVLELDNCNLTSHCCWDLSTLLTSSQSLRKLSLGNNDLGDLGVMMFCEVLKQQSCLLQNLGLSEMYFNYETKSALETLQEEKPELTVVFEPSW
3xFLAG-mEGFP-NLRP3-742-1036 (LRR domain of NLRP3): residues 742-1036 of Q96P20
UniProt Q8R4B8: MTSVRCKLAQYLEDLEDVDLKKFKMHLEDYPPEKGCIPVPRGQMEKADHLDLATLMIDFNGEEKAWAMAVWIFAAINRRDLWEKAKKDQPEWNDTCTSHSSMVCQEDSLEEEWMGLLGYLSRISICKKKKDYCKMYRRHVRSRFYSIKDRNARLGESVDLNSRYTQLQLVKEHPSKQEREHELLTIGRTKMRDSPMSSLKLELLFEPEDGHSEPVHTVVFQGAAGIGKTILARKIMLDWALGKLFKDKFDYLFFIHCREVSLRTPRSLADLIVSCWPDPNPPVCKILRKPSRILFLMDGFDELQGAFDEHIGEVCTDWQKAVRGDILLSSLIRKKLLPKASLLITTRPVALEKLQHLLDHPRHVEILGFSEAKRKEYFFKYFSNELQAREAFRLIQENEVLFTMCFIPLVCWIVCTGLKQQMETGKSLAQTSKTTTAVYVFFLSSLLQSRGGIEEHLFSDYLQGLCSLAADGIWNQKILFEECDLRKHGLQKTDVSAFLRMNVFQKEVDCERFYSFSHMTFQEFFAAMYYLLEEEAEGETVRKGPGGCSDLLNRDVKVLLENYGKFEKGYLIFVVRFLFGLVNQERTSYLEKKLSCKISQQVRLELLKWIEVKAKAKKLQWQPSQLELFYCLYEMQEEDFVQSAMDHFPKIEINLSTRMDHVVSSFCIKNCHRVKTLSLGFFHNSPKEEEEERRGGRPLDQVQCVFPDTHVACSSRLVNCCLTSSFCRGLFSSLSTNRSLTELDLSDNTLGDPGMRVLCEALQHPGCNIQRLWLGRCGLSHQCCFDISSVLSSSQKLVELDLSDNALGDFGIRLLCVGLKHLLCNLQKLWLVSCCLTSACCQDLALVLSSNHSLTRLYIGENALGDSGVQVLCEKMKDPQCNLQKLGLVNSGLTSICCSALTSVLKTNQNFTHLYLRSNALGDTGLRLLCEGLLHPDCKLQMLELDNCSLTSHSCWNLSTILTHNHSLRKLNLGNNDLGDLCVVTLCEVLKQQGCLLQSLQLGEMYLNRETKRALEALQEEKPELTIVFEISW
UniProt Q8R151: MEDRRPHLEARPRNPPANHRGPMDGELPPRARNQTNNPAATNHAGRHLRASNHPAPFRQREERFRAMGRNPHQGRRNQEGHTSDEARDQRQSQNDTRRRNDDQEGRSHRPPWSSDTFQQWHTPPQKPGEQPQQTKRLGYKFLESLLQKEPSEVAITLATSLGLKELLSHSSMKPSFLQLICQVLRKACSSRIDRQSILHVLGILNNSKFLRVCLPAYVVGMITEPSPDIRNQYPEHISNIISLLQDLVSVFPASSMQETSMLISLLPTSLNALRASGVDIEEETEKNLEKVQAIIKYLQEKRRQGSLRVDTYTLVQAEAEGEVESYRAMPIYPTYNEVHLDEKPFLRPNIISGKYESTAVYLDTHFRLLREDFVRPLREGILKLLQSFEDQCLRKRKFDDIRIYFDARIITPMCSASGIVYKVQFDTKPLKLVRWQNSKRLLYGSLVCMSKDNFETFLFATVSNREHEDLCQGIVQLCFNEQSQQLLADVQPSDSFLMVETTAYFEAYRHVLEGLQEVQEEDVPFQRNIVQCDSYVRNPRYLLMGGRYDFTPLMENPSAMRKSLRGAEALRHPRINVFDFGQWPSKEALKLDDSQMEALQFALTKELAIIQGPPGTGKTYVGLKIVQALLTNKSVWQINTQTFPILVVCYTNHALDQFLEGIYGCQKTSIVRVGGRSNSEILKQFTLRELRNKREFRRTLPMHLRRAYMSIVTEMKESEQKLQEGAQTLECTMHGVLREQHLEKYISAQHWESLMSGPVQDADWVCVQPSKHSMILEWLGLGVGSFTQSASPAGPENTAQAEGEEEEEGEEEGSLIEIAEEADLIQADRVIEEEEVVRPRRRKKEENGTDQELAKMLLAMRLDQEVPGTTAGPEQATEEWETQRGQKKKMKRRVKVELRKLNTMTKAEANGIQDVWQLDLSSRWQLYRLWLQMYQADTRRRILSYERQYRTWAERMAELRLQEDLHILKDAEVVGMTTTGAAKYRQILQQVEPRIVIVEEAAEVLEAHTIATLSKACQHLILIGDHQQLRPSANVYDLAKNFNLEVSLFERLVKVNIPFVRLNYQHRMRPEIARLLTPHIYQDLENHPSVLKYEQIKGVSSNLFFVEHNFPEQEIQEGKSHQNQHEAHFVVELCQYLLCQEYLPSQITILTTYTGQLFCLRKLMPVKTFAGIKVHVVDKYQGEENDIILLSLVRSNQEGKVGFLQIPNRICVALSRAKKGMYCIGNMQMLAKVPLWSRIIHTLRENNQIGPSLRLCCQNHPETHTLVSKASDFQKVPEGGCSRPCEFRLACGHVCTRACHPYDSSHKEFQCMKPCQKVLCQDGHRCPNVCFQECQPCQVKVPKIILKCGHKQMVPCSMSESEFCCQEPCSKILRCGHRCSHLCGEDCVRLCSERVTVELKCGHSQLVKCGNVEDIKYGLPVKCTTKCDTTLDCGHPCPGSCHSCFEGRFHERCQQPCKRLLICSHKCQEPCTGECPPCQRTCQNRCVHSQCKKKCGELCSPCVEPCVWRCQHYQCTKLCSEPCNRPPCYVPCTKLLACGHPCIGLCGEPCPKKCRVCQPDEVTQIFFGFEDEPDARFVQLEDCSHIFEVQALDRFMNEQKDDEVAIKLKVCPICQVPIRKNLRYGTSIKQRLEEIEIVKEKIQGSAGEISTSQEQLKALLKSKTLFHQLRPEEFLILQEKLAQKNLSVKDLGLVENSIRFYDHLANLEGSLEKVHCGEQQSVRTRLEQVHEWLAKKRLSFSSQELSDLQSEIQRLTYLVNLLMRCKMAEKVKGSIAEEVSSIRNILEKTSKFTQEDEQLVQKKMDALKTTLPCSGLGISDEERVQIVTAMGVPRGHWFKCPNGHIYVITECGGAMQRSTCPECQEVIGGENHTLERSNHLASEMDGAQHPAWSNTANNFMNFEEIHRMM

Test [1] deals with 3xFLAG-mEGFP-caspase-1, expressed in HEK293T (UniProt P29466). Nature of the test: co-IP; 3xFLAG-tagged and HA-tagged proteins co-expressed in HEK293T; lysis buffer 50 mM Tris-HCl pH 7.4, 150 mM NaCl, 0.5% Triton X-100; FLAG-M2 agarose beads 4 h at 4 C; blots with anti-FLAG and anti-HA.
The target in test [2] is 3xFLAG-mEGFP-ASC, expressed in HEK293T (UniProt Q9ULZ3). The description is as above.
Test [3] addresses T1, 3xFLAG-mEGFP-AIM2, expressed in HEK293T (UniProt O14862).
T1 sequence: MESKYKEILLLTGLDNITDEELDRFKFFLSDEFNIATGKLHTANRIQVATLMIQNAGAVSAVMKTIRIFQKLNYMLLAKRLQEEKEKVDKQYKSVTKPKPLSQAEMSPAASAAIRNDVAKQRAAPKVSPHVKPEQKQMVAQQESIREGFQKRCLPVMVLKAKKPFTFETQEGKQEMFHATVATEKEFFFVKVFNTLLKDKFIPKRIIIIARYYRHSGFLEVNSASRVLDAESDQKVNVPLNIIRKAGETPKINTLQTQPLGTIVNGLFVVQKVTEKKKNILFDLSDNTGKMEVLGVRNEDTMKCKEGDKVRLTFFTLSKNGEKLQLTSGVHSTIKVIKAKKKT
The description is as above.

Test [4] deals with 3xFLAG-mEGFP-NLRP3 (NLR family pyrin domain-containing protein 3), expressed in HEK293T (UniProt Q96P20). The test is described as above.
The target of test [5] is 3xFLAG-mEGFP-NLRP3-742-1036 (LRR domain of NLRP3) (UniProt Q96P20). The description is as above.
Test [6] deals with 3xFLAG-mEGFP-ZNFX1 wild type, stably expressed in ZNFX1 KO THP-1 cells (UniProt Q9P2E3). Briefly: co-IP; ZNFX1 KO THP-1-derived macrophages rescued with WT or pathogenic alleles of ZNFX1; FLAG-M2 beads; endogenous NLRP3 blotted.
Test [7] concerns the target 3xFLAG-mEGFP-ZNFX1 L1051P, stably expressed in ZNFX1 KO THP-1 cells (UniProt Q9P2E3). Described as above.
Test [8] concerns the target 3xFLAG-mEGFP-ZNFX1 R334Q, stably expressed in ZNFX1 KO THP-1 cells (UniProt Q9P2E3). The description is as above.
In test [9] the target is 3xFLAG-mEGFP-ZNFX1 I1154T, stably expressed in ZNFX1 KO THP-1 cells (UniProt Q9P2E3). Described as above.
Test [10] has as its target 3xFLAG-mEGFP-ZNFX1 E1007Q (Walker B motif mutant) (UniProt Q9P2E3). Nature of the test: co-IP; co-immunoprecipitation of NLRP3 with WT or helicase mutants of ZNFX1; cells and beads not named in the legend.
Test [11] deals with 3xFLAG-mEGFP-ZNFX1 K625A (Walker A motif mutant) (UniProt Q9P2E3). The test is described as above.
The target in test [12] is T2, 3xFLAG-ZNFX1-580-1260 (P-loop domain of ZNFX1) (UniProt Q9P2E3).
T2 sequence: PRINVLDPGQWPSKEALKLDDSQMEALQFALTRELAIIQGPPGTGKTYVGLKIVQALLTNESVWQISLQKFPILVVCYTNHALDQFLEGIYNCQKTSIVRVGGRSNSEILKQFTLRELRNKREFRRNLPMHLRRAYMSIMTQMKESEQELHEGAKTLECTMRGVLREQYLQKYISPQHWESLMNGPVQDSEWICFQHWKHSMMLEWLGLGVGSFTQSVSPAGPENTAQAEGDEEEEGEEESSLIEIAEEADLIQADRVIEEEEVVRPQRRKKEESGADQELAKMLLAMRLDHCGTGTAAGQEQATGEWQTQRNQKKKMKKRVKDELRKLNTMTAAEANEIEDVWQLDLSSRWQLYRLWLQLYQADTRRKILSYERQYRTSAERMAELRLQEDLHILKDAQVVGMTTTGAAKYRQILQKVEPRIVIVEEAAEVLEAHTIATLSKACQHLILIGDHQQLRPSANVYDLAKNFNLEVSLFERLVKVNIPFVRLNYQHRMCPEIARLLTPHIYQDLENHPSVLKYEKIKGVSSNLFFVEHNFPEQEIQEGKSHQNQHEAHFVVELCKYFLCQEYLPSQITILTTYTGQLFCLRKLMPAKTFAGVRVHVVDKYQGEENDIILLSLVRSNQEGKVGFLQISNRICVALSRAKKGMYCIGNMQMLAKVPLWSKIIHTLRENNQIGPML
Briefly: co-IP; 3xFLAG-tagged and HA-tagged proteins co-expressed in HEK293T; lysis buffer 50 mM Tris-HCl pH 7.4, 150 mM NaCl, 0.5% Triton X-100; FLAG-M2 agarose beads 4 h at 4 C; blots with anti-FLAG and anti-HA.

Test [13] deals with NLRP3, endogenous in THP-1-derived macrophages (human (endogenous in THP-1)) (UniProt Q96P20). Nature of the test: co-IP; endogenous proteins; lysates of THP-1-derived macrophages, iBMDM (WT or Znfx1 KO) or primary BMDM, resting, LPS-primed or nigericin-treated; anti-NLRP3 (AdipoGen) or IgG control 4 h at 4 C, Protein A/G beads overnight.
The target in test [14] is NLRP3, endogenous in mouse iBMDM and primary BMDM (mouse (endogenous in iBMDM and BMDM)) (UniProt Q8R4B8). Described as above.

No constants are given. Whether binding was seen depends on the method and setting. Binding seen in cells or lysates may run through a third protein. Some binding calls cover weakened binding; strength is not graded here. For some assays here: Where a sequence is shown, tags or fusion partners need not be part of it.

On to “HA-mCherry-ZNFX1, expressed in HEK293T (from UniProt Q9P2E3 1-1918)”, for which the binding entry in [1] was “no binding”; in test [2], “no binding”; in [3], “no binding”; in test [4], “binds”; in test [5], “binds”.

Take “NLRP3, endogenous in THP-1-derived macrophages (from UniProt Q96P20 1-1036)”: the binding entry in test [6] is listed as “binds”; in test [7], “no binding”; in test [8], “no binding”; in test [9], “no binding”; in test [10], “no binding”; in test [11] it was “no binding”.

For the substance “HA-mCherry-NLRP3, expressed in HEK293T (from UniProt Q96P20 1-1036)”, the binding result in test [12] is on record as “binds”.

Regarding “ZNFX1, endogenous in THP-1-derived macrophages (from UniProt Q9P2E3 1-1918)”, the binding entry in [13] was “binds”.

For the substance “ZNFX1, endogenous in mouse iBMDM and primary BMDM (from UniProt Q8R151 1-1909)”, the binding result in test [14] is recorded as “binds”.
